From article PMC8786347 (Oncoimmunology, 2022)

T1: CD27-moFc (UniProt P26842 20-191)
T1 sequence (looked up): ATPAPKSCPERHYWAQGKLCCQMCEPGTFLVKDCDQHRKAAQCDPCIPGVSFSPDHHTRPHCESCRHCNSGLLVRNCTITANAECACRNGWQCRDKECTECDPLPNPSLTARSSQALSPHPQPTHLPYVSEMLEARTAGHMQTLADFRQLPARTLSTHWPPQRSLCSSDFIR

T2: OX40-moFc (UniProt P43489 29-214)
T2 sequence (looked up): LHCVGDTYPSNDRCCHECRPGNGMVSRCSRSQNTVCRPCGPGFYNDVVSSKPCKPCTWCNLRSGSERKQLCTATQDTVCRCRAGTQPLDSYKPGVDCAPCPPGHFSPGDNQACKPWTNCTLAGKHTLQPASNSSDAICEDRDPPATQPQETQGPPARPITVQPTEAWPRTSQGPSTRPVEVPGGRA

T3: OX40 (immobilized receptor, TNFRSF-Fc fusion protein, Figure 4a) (UniProt P43489 29-214)
T3 sequence (looked up): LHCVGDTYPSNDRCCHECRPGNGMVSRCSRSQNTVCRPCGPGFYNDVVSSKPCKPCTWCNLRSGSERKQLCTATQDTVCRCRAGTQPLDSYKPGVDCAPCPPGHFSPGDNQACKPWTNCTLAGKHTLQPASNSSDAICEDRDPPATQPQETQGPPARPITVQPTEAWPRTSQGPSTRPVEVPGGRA

B1: sc4-1BBL-scCD27L-Fc (Fc fusion, human)
chain 1: [about 200 residues not printed]GGGGSGGGGSGGGGSGGGGSREGPELSPDDPAGLLDLRQGMFAQLVAQNVLLIDGPLSWYSDPGLAGVSLTGGLSYKEDTKELVVAKAGVYYVFFQLELRRVVAGEGSGSVSLALHLQPLRSAAGAAALALTVDLPPASSEARNSAFGFQGRLLHLSAGQRLGVHLHTEARARHAWQLTQGATVLGLFRVTPEIPAGLPSPRSEGGGGSGGGGSGGGGSGGGGSREGPELSPDDPAGLLDLRQGMFAQLVAQNVLLIDGPLSWYSDPGLAGVSLTGGLSYKEDTKELVVAKAGVYYVFFQLELRRVVAGEGSGSVSLALHLQPLRSAAGAAALALTVDLPPASSEARNSAFGFQGRLLHLSAGQRLGVHLHTEARARHAWQLTQGATVLGLFRVTPEIPAGLPSPRSE
chain 2: SLGWDVAELQLNHTGPQQDPRLYWQGGPALGRSFLHGPELDKGQLRIHRDGIYMVHIQVTLAICSSTTASRHHPTTLAVGICSPASRSISLLRLSFHQGCTIASQRLTPLARGDTLCTNLTGTLLPSRNTDETFFGVQWVRPGGSLGWDVAELQLNHTGPQQDPRLYWQGGPALGRSFLHGPELDKGQLRIHRDGIYMVHIQVTLAICSSTTASRHHPTTLAVGICSPASRSISLLRLSFHQGCTIASQRLTPLARGDTLCTNLTGTLLPSRNTDETFFGVQWVRPGGSLGWDVAELQLNHTGPQQDPRLYWQGGPALGRSFLHGPELDKGQLRIHRDGIYMVHIQVTLAICSSTTASRHHPTTLAVGICSPASRSISLLRLSFHQGCTIASQRLTPLARGDTLCTNLTGTLLPSRNTDETFFGVQWVRP
B2: scCD40L-sc4-1BBL-Fc (Fc fusion, human)
chain 1: GDQNPQIAAHVISEASSKTTSVLQWAEKGYYTMSNNLVTLENGKQLTVKRQGLYYIYAQVTFCSNREASSQAPFIASLCLKSPGRFERILLRAANTHSSAKPCGQQSIHLGGVFELQPGASVFVNVTDPSQVSHGTGFTSFGLLKLGGGDQNPQIAAHVISEASSKTTSVLQWAEKGYYTMSNNLVTLENGKQLTVKRQGLYYIYAQVTFCSNREASSQAPFIASLCLKSPGRFERILLRAANTHSSAKPCGQQSIHLGGVFELQPGASVFVNVTDPSQVSHGTGFTSFGLLKLGGGDQNPQIAAHVISEASSKTTSVLQWAEKGYYTMSNNLVTLENGKQLTVKRQGLYYIYAQVTFCSNREASSQAPFIASLCLKSPGRFERILLRAANTHSSAKPCGQQSIHLGGVFELQPGASVFVNVTDPSQVSHGTGFTSFGLLKL
chain 2: [about 200 residues not printed]GGGGSGGGGSGGGGSGGGGSREGPELSPDDPAGLLDLRQGMFAQLVAQNVLLIDGPLSWYSDPGLAGVSLTGGLSYKEDTKELVVAKAGVYYVFFQLELRRVVAGEGSGSVSLALHLQPLRSAAGAAALALTVDLPPASSEARNSAFGFQGRLLHLSAGQRLGVHLHTEARARHAWQLTQGATVLGLFRVTPEIPAGLPSPRSEGGGGSGGGGSGGGGSGGGGSREGPELSPDDPAGLLDLRQGMFAQLVAQNVLLIDGPLSWYSDPGLAGVSLTGGLSYKEDTKELVVAKAGVYYVFFQLELRRVVAGEGSGSVSLALHLQPLRSAAGAAALALTVDLPPASSEARNSAFGFQGRLLHLSAGQRLGVHLHTEARARHAWQLTQGATVLGLFRVTPEIPAGLPSPRSE
B3: sc4-1BBL-scOX40L-Fc (Fc fusion, human)
chain 1: [about 200 residues not printed]GGGGSGGGGSGGGGSGGGGSREGPELSPDDPAGLLDLRQGMFAQLVAQNVLLIDGPLSWYSDPGLAGVSLTGGLSYKEDTKELVVAKAGVYYVFFQLELRRVVAGEGSGSVSLALHLQPLRSAAGAAALALTVDLPPASSEARNSAFGFQGRLLHLSAGQRLGVHLHTEARARHAWQLTQGATVLGLFRVTPEIPAGLPSPRSEGGGGSGGGGSGGGGSGGGGSREGPELSPDDPAGLLDLRQGMFAQLVAQNVLLIDGPLSWYSDPGLAGVSLTGGLSYKEDTKELVVAKAGVYYVFFQLELRRVVAGEGSGSVSLALHLQPLRSAAGAAALALTVDLPPASSEARNSAFGFQGRLLHLSAGQRLGVHLHTEARARHAWQLTQGATVLGLFRVTPEIPAGLPSPRSE
chain 2: QVSHRYPRIQSIKVQFTEYKKEKGFILTSQKEDEIMKVQNNSVIINCDGFYLISLKGYFSQEVNISLHYQKDEEPLFQLKKVRSVNSLMVASLTYKDKVYLNVTTDNTSLDDFHVNGGELILIHQNPGEFCVLGGGGSGGGGSGGGGSQVSHRYPRIQSIKVQFTEYKKEKGFILTSQKEDEIMKVQNNSVIINCDGFYLISLKGYFSQEVNISLHYQKDEEPLFQLKKVRSVNSLMVASLTYKDKVYLNVTTDNTSLDDFHVNGGELILIHQNPGEFCVLGGGGSGGGGSGGGGSQVSHRYPRIQSIKVQFTEYKKEKGFILTSQKEDEIMKVQNNSVIINCDGFYLISLKGYFSQEVNISLHYQKDEEPLFQLKKVRSVNSLMVASLTYKDKVYLNVTTDNTSLDDFHVNGGELILIHQNPGEFCVL

Key:
Assay in all cases: ELISA
CD27-moFc = biological target: T1, CD27-moFc
4-1BB-moFc = 4-1BB-moFc (UniProt Q07011 24-186)
4-1BB-huFc = 4-1BB-huFc (UniProt Q07011 24-186)
CD40-moFc = CD40-moFc (UniProt P25942 part only)
OX40-moFc = biological target: T2, OX40-moFc
[1] = biological target: 4-1BB (immobilized receptor, TNFRSF-Fc fusion protein, Figure 4a) (UniProt Q07011 24-186)
[2] = biological target: T3, OX40 (immobilized receptor, TNFRSF-Fc …)

Chain of CD40-moFc (P25942 21-193): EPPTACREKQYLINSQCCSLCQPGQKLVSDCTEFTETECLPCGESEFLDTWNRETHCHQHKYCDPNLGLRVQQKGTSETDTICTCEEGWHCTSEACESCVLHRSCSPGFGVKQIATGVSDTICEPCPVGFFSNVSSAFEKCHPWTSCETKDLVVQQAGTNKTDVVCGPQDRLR

EC50 (CD27-moFc) [nM] | EC50 (4-1BB-moFc) [nM] | EC50 (4-1BB-huFc) [nM] | EC50 (CD40-moFc) [nM] | EC50 (OX40-moFc) [nM] | fold increase of binding against scDk 4-1BBLxOX40L [1] [fold] | fold increase of binding against scDk 4-1BBLxOX40L [2] [fold] | Binder
0.4 | 0.2 | 0.2 | – | – | – | – | B1
– | – | – | 0.4 | – | – | – | B2
– | 0.3 | 0.4 | – | 0.4 | 4.9 | 2.4 | B3
